Measurements: the supplement of paper PMC8728848
Some of the results follow.

Tests used:
Experiment in all cases: glycan array binding signal (z-score within array); higher = stronger binding
Conditions in all cases: glycan notation: IUPAC condensed, linker removed
[1] = biological target: Fuc(a1-2)Gal(b1-4)GlcNAc(b1-3)Gal(b1-4)GlcNAc
Procedure, shortened: (§1)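 Glycan array data were curated from 3228 arrays in the Consortium for Functional Glycomics database and kept only where the protein sequence was available. Glycan names were converted to IUPAC-condensed notation, and columns mapping to the same glycan were averaged. The binding signal is a within-array Z-score, averaged across arrays of the same protein sequence at different concentrations or buffers and across linkers. Negative Z-scores can be read as non-binding.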

[2] = biological target: Fuc(a1-2)Gal(b1-4)GlcNAc(b1-3)Gal(b1-4)GlcNAc(b1-2)Man(a1-3)[Fuc(a1-2)Gal(b1-4)GlcNAc(b1-3)Gal(b1-4)GlcNAc(b1-2)Man(a1-6)]Man(b1-4)GlcNAc(b1-4)GlcNAc
Procedure, shortened: as §1

[3] = biological target: Fuc(a1-2)Gal(b1-4)GlcNAc(b1-3)Gal(b1-4)GlcNAc(b1-3)Gal(b1-4)GlcNAc
Procedure, shortened: as §1

[4] = biological target: Fuc(a1-2)Gal(b1-4)GlcNAc(b1-3)GalNAc
Procedure, shortened: as §1

[5] = biological target: Fuc(a1-2)Gal(b1-4)GlcNAc(b1-3)[Fuc(a1-2)Gal(b1-4)GlcNAc(b1-6)]GalNAc
Procedure, shortened: as §1

[6] = biological target: Fuc(a1-2)Gal(b1-4)GlcNAc(b1-3)[Fuc(a1-3)[Gal(b1-4)]GlcNAc(b1-6)]Gal(b1-4)Glc
Procedure, shortened: as §1

[7] = biological target: Fuc(a1-2)Gal(b1-4)GlcNAc(b1-6)GalNAc
Procedure, shortened: as §1

[8] = biological target: Fuc(a1-2)Gal(b1-4)GlcNAc6S
Procedure, shortened: as §1

[9] = biological target: Fuc(a1-2)Gal(b1-4)[Fuc(a1-3)]GalNAc(b1-3)Gal(b1-4)[Fuc(a1-3)]GlcNAc
Procedure, shortened: as §1

[10] = biological target: Fuc(a1-2)Gal(b1-4)[Fuc(a1-3)]GalNAc(b1-3)Gal(b1-4)[Fuc(a1-3)]GlcNAc(b1-3)Gal(b1-4)[Fuc(a1-3)]GalNAc
Procedure, shortened: as §1

[11] = biological target: Fuc(a1-2)Gal(b1-4)[Fuc(a1-3)]GlcNAc
Procedure, shortened: as §1

[12] = biological target: Fuc(a1-2)Gal(b1-4)[Fuc(a1-3)]GlcNAc(b1-2)Man(a1-3)[Fuc(a1-2)Gal(b1-4)[Fuc(a1-3)]GlcNAc(b1-2)Man(a1-6)]Man(b1-4)GlcNAc(b1-4)[Fuc(a1-6)]GlcNAc
Procedure, shortened: as §1

[13] = biological target: Fuc(a1-2)Gal(b1-4)[Fuc(a1-3)]GlcNAc(b1-2)[Fuc(a1-2)Gal(b1-4)[Fuc(a1-3)]GlcNAc(b1-4)]Man(a1-3)[Fuc(a1-2)Gal(b1-4)[Fuc(a1-3)]GlcNAc(b1-2)Man(a1-6)]Man(b1-4)GlcNAc(b1-4)GlcNAc
Procedure, shortened: as §1

[14] = biological target: Fuc(a1-2)Gal(b1-4)[Fuc(a1-3)]GlcNAc(b1-3)Gal(b1-4)[Fuc(a1-3)]GlcNAc
Procedure, shortened: as §1

[15] = biological target: Fuc(a1-2)Gal(b1-4)[Fuc(a1-3)]GlcNAc(b1-3)Gal(b1-4)[Fuc(a1-3)]GlcNAc(b1-3)Gal(b1-4)[Fuc(a1-3)]GlcNAc
Procedure, shortened: as §1

[16] = biological target: Fuc(a1-2)Gal(b1-4)[Fuc(a1-3)]GlcNAc(b1-3)GalNAc
Procedure, shortened: as §1

[17] = biological target: Fuc(a1-2)Gal(b1-4)[Fuc(a1-3)]GlcNAc(b1-3)[Neu5Ac(a2-6)Gal(b1-4)GlcNAc(b1-6)]Gal(b1-4)Glc
Procedure, shortened: as §1

[18] = biological target: Fuc(a1-2)Gal3S(b1-4)GlcNAc
Procedure, shortened: as §1

[19] = biological target: Fuc(a1-2)Gal6S(b1-3)GlcNAc
Procedure, shortened: as §1

[20] = biological target: Fuc(a1-2)Gal6S(b1-3)GlcNAc6S
Procedure, shortened: as §1

Fuc(a1-2)Gal6S(b1-4)Glc = biological target: Fuc(a1-2)Gal6S(b1-4)Glc
Procedure, shortened: as §1

[21] = biological target: Fuc(a1-2)Gal6S(b1-4)Glc6S
Procedure, shortened: as §1

[22] = biological target: Fuc(a1-2)Gal6S(b1-4)GlcNAc
Procedure, shortened: as §1

Fuc(a1-2)GlcNAc = biological target: Fuc(a1-2)GlcNAc
Procedure, shortened: as §1

Fuc(a1-2)[Gal(a1-3)]Gal = biological target: Fuc(a1-2)[Gal(a1-3)]Gal
Procedure, shortened: as §1

[23] = biological target: Fuc(a1-2)[Gal(a1-3)]Gal(b1-3)GalNAc
Procedure, shortened: as §1

[24] = biological target: Fuc(a1-2)[Gal(a1-3)]Gal(b1-3)GalNAc(b1-3)Gal(a1-4)Gal(b1-4)Glc
Procedure, shortened: as §1

[25] = biological target: Fuc(a1-2)[Gal(a1-3)]Gal(b1-3)GlcNAc
Procedure, shortened: as §1

[26] = biological target: Fuc(a1-2)[Gal(a1-3)]Gal(b1-3)GlcNAc(b1-2)Man(a1-3)[Fuc(a1-2)[Gal(a1-3)]Gal(b1-3)GlcNAc(b1-2)Man(a1-6)]Man(b1-4)GlcNAc(b1-4)GlcNAc
Procedure, shortened: as §1

[27] = biological target: Fuc(a1-2)[Gal(a1-3)]Gal(b1-3)GlcNAc(b1-2)Man(a1-3)[Fuc(a1-2)[Gal(a1-3)]Gal(b1-3)GlcNAc(b1-2)Man(a1-6)]Man(b1-4)GlcNAc(b1-4)[Fuc(a1-6)]GlcNAc
Procedure, shortened: as §1

B1: Epa7 (Candida glabrata), Q6DTM6_CANGB (protein)
chain: MGSSHHHHHHSSGLVPRGSHMKDDYSSFLSNNNLGWTDPTEFPLGCSPNVTTPKNGLSMELYSYDLRKNGSYPCWDAAYLDPNYPRTGYKSHRLLAKVDGVTGNINFYYHATKGCTPEIDHLPASYNYPKPLTMTNFTMLLYGYFKPKVTGYHTFTISADDLLFVNFGAGNAFDCCKRESSADDFGNYQAYAVWGSQTAKDDLTVHLDAGLYYPIRIFFNNREYDAELSLTLKTESDSNPVIDFSDYFYSFDDTKDGCPGLVSYDTS
- glycan array binding signal (z-score) [1]: -0.258
- glycan array binding signal (z-score) [2]: -0.201
- glycan array binding signal (z-score) [3]: -0.253
- glycan array binding signal (z-score) [4]: -0.166
- glycan array binding signal (z-score) [5]: -0.209
- glycan array binding signal (z-score) [6]: -0.221
- glycan array binding signal (z-score) [7]: -0.188
- glycan array binding signal (z-score) [8]: -0.254
- glycan array binding signal (z-score) [9]: -0.284
- glycan array binding signal (z-score) [10]: -0.281
- glycan array binding signal (z-score) [11]: -0.255
- glycan array binding signal (z-score) [12]: -0.197
- glycan array binding signal (z-score) [13]: -0.125
- glycan array binding signal (z-score) [14]: -0.236
- glycan array binding signal (z-score) [15]: -0.231
- glycan array binding signal (z-score) [16]: -0.027
- glycan array binding signal (z-score) [17]: -0.135
- glycan array binding signal (z-score) [18]: -0.217
- glycan array binding signal (z-score) [19]: -0.219
- glycan array binding signal (z-score) [20]: -0.195
- glycan array binding signal (z-score) (Fuc(a1-2)Gal6S(b1-4)Glc): -0.259
- glycan array binding signal (z-score) [21]: -0.247
- glycan array binding signal (z-score) [22]: -0.285
- glycan array binding signal (z-score) (Fuc(a1-2)GlcNAc): -0.263
- glycan array binding signal (z-score) (Fuc(a1-2)[Gal(a1-3)]Gal): -0.213
- glycan array binding signal (z-score) [23]: -0.226
- glycan array binding signal (z-score) [24]: -0.218
- glycan array binding signal (z-score) [25]: -0.244
- glycan array binding signal (z-score) [26]: -0.23
- glycan array binding signal (z-score) [27]: -0.228
